In all, about 33,000 sequences were measured (“E-score (-0.5 to 0.5)”: median about -0.013, highest 2% from about 0.3 on). This is one part of the list.
The sequences below were run against T1, Msn1 (UniProt P22148) (assay: PBM E-score (8-mer binding enrichment) (E-score (-0.5 to 0.5)); higher = stronger / more preferred TF binding; most listed sequences are background and not binding sites). Details: protein concentration: 200 nM; construct: GST-full length.
T1 sequence: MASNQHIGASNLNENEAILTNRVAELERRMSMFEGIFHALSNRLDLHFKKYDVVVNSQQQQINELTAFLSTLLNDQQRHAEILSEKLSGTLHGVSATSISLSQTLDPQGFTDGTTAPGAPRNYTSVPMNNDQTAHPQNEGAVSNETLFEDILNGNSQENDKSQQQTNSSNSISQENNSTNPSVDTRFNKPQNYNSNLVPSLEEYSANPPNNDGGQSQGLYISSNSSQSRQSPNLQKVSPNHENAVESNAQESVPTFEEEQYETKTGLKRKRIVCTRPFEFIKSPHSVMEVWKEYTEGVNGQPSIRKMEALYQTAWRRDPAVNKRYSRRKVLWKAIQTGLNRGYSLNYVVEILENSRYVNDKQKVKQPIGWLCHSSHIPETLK
Summary of the method: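 Universal all-10-mer Agilent arrays, fresh or stripped once, were converted to double-stranded form by primer extension. GST-tagged yeast transcription factors from PURExpress in vitro transcription/translation, full-length or DNA-binding domain only, were applied at about 100-200 nM and detected with fluorescent anti-GST. After masliner normalisation, the Universal PBM Analysis Suite scored each ungapped eight-base word together with its reverse complement by E-score.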

Compared with TAGGGGGA, GTTCCGAA is higher in “PBM E-score” value: -0.278 for the first, 0.286 for the second.

Going from AGTACACT to TCAGCAGA, the “PBM E-score” value rises from -0.0325 to 0.0438.

Going from GTGTTTTA to CCTCCGGA, the “PBM E-score” value rises from 0.0163 to 0.102.

First: AACGAGGT
Second: AACACCAG
The “PBM E-score” value of the first is higher: -0.0403 for the first, -0.113 for the second.

Going from CCGAGCAG to ATTAACCA, the “PBM E-score” value falls from 0.065 to 0.0342.

Compared with AGGGACTC, AGGGCGGA is higher in “PBM E-score” value: -0.223 for the first, -0.176 for the second.

First: ACCAAGTG
Second: ATGTCGTA
The “PBM E-score” value of the first is lower: -0.216 for the first, 0.395 for the second.

First: AGAACCTG
Second: GATTAAAC
The “PBM E-score” value of the first is lower: -0.122 for the first, 0.0815 for the second.

First: CGTGTCCA
Second: TAACGATA
The “PBM E-score” value of the first is higher: 0.424 for the first, 0.0612 for the second.

Going from AATGGTGT to CCTGTCCC, the “PBM E-score” value rises from 0.0502 to 0.282.

Going from ATATTTCC to TATGCCGA, the “PBM E-score” value falls from 0.0237 to 0.0169.

First: GTCGGCGA
Second: TGATCGAA
The “PBM E-score” value of the first is higher: -0.0425 for the first, -0.136 for the second.

First: CAGCTCAG
Second: ATGGCATG
The “PBM E-score” value of the first is lower: -0.126 for the first, 0.0429 for the second.

Compared with AGCTAAAA, TAGAGCAA is lower in “PBM E-score” value: 0.0229 for the first, -0.0788 for the second.

First: ATTCGAAG
Second: CATTTTAG
The “PBM E-score” value of the first is lower: 0.00246 for the first, 0.179 for the second.

Compared with CGCTCCAC, ACAGCCTC is higher in “PBM E-score” value: -0.204 for the first, -0.182 for the second.

First: TCTTTACA
Second: GCACCATA
The “PBM E-score” value of the first is higher: 0.0499 for the first, -0.0776 for the second.

Going from CTGCCGTA to TATCACAA, the “PBM E-score” value rises from -0.0818 to -0.00162.

First: CTTTTGTC
Second: CCCTTCAC
The “PBM E-score” value of the first is higher: 0.455 for the first, -0.269 for the second.

Going from GGTTCGTA to AAGGCTGT, the “PBM E-score” value falls from -0.0596 to -0.252.

Going from CGCGGTAA to AGGGCCTC, the “PBM E-score” value falls from 0.0291 to -0.236.

Compared with GGTCGAAA, GACCCTAC is higher in “PBM E-score” value: -0.277 for the first, -0.19 for the second.

First: GGTACTCA
Second: ATAGCGAT
The “PBM E-score” value of the first is lower: -0.089 for the first, -0.0141 for the second.

Going from CAATCGGC to ACAAATTC, the “PBM E-score” value rises from 0.0138 to 0.306.

Going from TGTGCCAA to GCCAAACA, the “PBM E-score” value falls from 0.148 to -0.158.

First: CCTGACAG
Second: GCCGCACC
The “PBM E-score” value of the first is higher: -0.105 for the first, -0.23 for the second.

First: CACAATAA
Second: CCAAGCTC
The “PBM E-score” value of the first is lower: -0.00093 for the first, 0.133 for the second.

Going from CAGTATTC to CTGTACGC, the “PBM E-score” value rises from -0.0522 to -0.0179.

Compared with GCCGAAAA, AGTCAACT is lower in “PBM E-score” value: 0.3 for the first, -0.213 for the second.

Going from CTAGTGCA to GCAAAGCA, the “PBM E-score” value falls from 0.175 to -0.137.

First: GCTCGGCC
Second: CTCCCGTC
The “PBM E-score” value of the first is lower: -0.164 for the first, -0.0977 for the second.

First: ACAGTACT
Second: AGGGCTCA
The “PBM E-score” value of the first is higher: 0.103 for the first, -0.2 for the second.

Going from AATCGGGA to CTATCGAC, the “PBM E-score” value falls from 0.25 to -0.111.

First: TATGGCAA
Second: GACGGCTC
The “PBM E-score” value of the first is higher: -0.008 for the first, -0.211 for the second.

Going from CTGGAGCA to CCTATCTC, the “PBM E-score” value falls from -0.138 to -0.183.

Compared with AAATACCC, GCCGTCAA is lower in “PBM E-score” value: -0.0057 for the first, -0.0445 for the second.

First: CCTGATCC
Second: CGAGCTTA
The “PBM E-score” value of the first is lower: -0.169 for the first, -0.0549 for the second.

Going from AAGCTTGT to CTTCTGCC, the “PBM E-score” value falls from 0.0725 to -0.117.

Compared with GTTTGGCA, AAGGTTTG is lower in “PBM E-score” value: -0.0269 for the first, -0.0327 for the second.

Compared with AGCGACAA, AAGTTCGA is lower in “PBM E-score” value: 0.301 for the first, 0.168 for the second.

First: CTACGTAA
Second: ATGCCTGC
The “PBM E-score” value of the first is higher: -0.0509 for the first, -0.145 for the second.

Going from CATACAGA to ATGGAGGC, the “PBM E-score” value falls from 0.182 to -0.327.

Compared with AACCGGAG, CTGCAAAG is lower in “PBM E-score” value: 0.0376 for the first, -0.202 for the second.

Going from GGGGAGCA to GCCGCCAC, the “PBM E-score” value rises from -0.414 to -0.269.

First: CTATCCTA
Second: CGGTAATC
The “PBM E-score” value of the first is higher: -0.0856 for the first, -0.0925 for the second.

First: AGCATCCA
Second: GCAAATCC
The “PBM E-score” value of the first is lower: -0.0284 for the first, 0.116 for the second.

Compared with ATGGTTAG, CTCCACAC is lower in “PBM E-score” value: 0.0359 for the first, -0.205 for the second.

First: CTGAAGTA
Second: ACAACGTG
The “PBM E-score” value of the first is lower: -0.0804 for the first, 0.12 for the second.

Compared with CAGCTAAG, CGGCAACG is higher in “PBM E-score” value: -0.15 for the first, -0.148 for the second.

Going from GGCTAGAC to CTGCTTAA, the “PBM E-score” value rises from -0.206 to -0.0855.

Compared with CTGCCCAG, CCAGTTAG is higher in “PBM E-score” value: -0.31 for the first, -0.0534 for the second.

Compared with CCACCGCC, ATTTGGCA is higher in “PBM E-score” value: -0.159 for the first, 0.0086 for the second.

Going from GAGACTCA to CCATTGCA, the “PBM E-score” value rises from 0.0191 to 0.0313.

First: CAATTGAC
Second: CTCGAACA
The “PBM E-score” value of the first is higher: 0.0683 for the first, -0.0343 for the second.

ACCGACCG was tested, and the “PBM E-score” value was 0.0479.

Reference: the supplement of paper PMC3334620
